± gives the standard deviation of the averaged measurements. The full ranking holds about 33,000 sequences; the median of “E-score (dimensionless, -0.5 to 0.5)” is about -0.046, and the highest 2% start at about 0.36. Some of the results follow.
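Further: protein at 200 nM in PBS on universal double-stranded arrays.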

For the test, the system named is T1, SpTbr T-box DNA-binding domain (GST fusion).
T1 sequence: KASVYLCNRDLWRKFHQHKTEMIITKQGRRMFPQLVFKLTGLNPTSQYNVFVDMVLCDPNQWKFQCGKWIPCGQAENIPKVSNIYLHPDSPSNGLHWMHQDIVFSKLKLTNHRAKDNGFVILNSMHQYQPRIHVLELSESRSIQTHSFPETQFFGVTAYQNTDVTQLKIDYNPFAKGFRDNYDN
Nature of the test: PBM E-score of 8-mer (E-score (dimensionless, -0.5 to 0.5)); Tbr is Tbrain of the sea star Patiria miniata (Pm) or the sea urchin Strongylocentrotus purpuratus (Sp); higher = stronger binding preference; most listed sequences are background and not binding sites. The conditions noted are these: the construct has about 5 more residues each side. How it is done: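 Universal protein-binding microarray (Agilent AMADID 016060, 60-bp probes with a 35-bp variable region) incubated with 200 nM GST-fused Strongylocentrotus purpuratus Tbr T-box DNA-binding domain (residues 362-554) in PBS pH 7.5. Scored for every ungapped 8-mer (given with its reverse complement) as E-score (range -0.5 to 0.5; >0.45 counts as bound) and Z-score of median probe intensity. Two replicate arrays (datasets 1 and 2).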
Turning to CCCTTGCA, the “PBM E-score of 8-mer” value was -0.0187 ± 0.061.

For the sequence GGAGACGA, the “PBM E-score of 8-mer” value was -0.227 ± 0.05.

As to CATACGCG, the “PBM E-score of 8-mer” value stood at 0.0844 ± 0.0024.

Consider GCCATGAA, for which the “PBM E-score of 8-mer” value was -0.149 ± 0.023.

Consider ATGCGGCC, for which the “PBM E-score of 8-mer” value was -0.1019 ± 0.0003.

Regarding GTCAGACA, the “PBM E-score of 8-mer” value is -0.0462 ± 0.062.

CGGCCACC: the “PBM E-score of 8-mer” value is -0.111 ± 0.016.

Consider TAACCCCA, for which the “PBM E-score of 8-mer” value was -0.153 ± 0.022.

With GCATCGAC, the “PBM E-score of 8-mer” value was -0.0694 ± 0.062.

CCAATGAC: the “PBM E-score of 8-mer” value is 0.1109 ± 0.00047.

For the sequence GATCGTTA, the “PBM E-score of 8-mer” value came out at 0.0958 ± 0.044.

Turning to CCAGGCGA, the “PBM E-score of 8-mer” value worked out at 0.0496 ± 0.053.

In the case of ATCAGCTG, the “PBM E-score of 8-mer” value is -0.15 ± 0.0088.

Consider CTTCCGAA, for which the “PBM E-score of 8-mer” value was -0.207 ± 0.016.

As for TCCTAAAA, the “PBM E-score of 8-mer” value was -0.241 ± 0.046.

As to CACCAGAA, the “PBM E-score of 8-mer” value was 0.184 ± 0.052.

AGGACACA: the “PBM E-score of 8-mer” value turned out to be 0.0518 ± 0.014.

For GATGACGA, the “PBM E-score of 8-mer” value amounted to 0.0818 ± 0.016.

As to CGCCAGAA, the “PBM E-score of 8-mer” value was 0.0206 ± 0.00035.

For the sequence CATTCCAA, the “PBM E-score of 8-mer” value is -0.139 ± 0.019.

As to TTAGGAAA, the “PBM E-score of 8-mer” value was -0.26 ± 0.011.

As to CTAGAAGA, the “PBM E-score of 8-mer” value is -0.2 ± 0.024.

In the case of AAGCTCCA, the “PBM E-score of 8-mer” value was -0.245 ± 0.051.

Regarding ACCGGCCC, the “PBM E-score of 8-mer” value is -0.217 ± 0.033.

In the case of AGGAATAC, the “PBM E-score of 8-mer” value is -0.231 ± 0.07.

TGGGGCAA: the “PBM E-score of 8-mer” value is -0.171 ± 0.032.

For the sequence CGGGTATC, the “PBM E-score of 8-mer” value was -0.0612 ± 0.15.

With GCGGTCGA, the “PBM E-score of 8-mer” value worked out at 0.0401 ± 0.043.

As for ATACACAG, the “PBM E-score of 8-mer” value is -0.0282 ± 0.04.

As to GGGTTATA, the “PBM E-score of 8-mer” value came to 0.000145 ± 0.01.

CATAAAGC: the “PBM E-score of 8-mer” value is -0.213 ± 0.014.

On to ATATTTAG, for which the “PBM E-score of 8-mer” value is -0.139 ± 0.1.

Take GATCCGGA: the “PBM E-score of 8-mer” value was -0.0653 ± 0.072.

ATAGCATC: the “PBM E-score of 8-mer” value is -0.0717 ± 0.029.

On to AATTTCGC, for which the “PBM E-score of 8-mer” value was found to be 0.248 ± 0.033.

For the sequence ATACGGCG, the “PBM E-score of 8-mer” value was -0.0448 ± 0.032.

As to CACTCTTA, the “PBM E-score of 8-mer” value was determined as 0.19 ± 0.015.

Consider GACACCTC, for which the “PBM E-score of 8-mer” value is 0.479 ± 0.009.

As for GCCCGGGC, the “PBM E-score of 8-mer” value was -0.0983 ± 0.046.

Regarding GCGTGTCA, the “PBM E-score of 8-mer” value is 0.313 ± 0.024.

With ACTCCAGA, the “PBM E-score of 8-mer” value was 0.00754 ± 0.031.

CTTGAAAC: the “PBM E-score of 8-mer” value is 0.0649 ± 0.033.

For the sequence CTTCGACA, the “PBM E-score of 8-mer” value was 0.173 ± 0.00078.

Take AGAACGAT: the “PBM E-score of 8-mer” value was -0.162 ± 0.036.

As for ACTAGTAG, the “PBM E-score of 8-mer” value was -0.057 ± 0.046.

In the case of ATGCGCAC, the “PBM E-score of 8-mer” value is -0.00479 ± 0.036.

Regarding CGGAATAC, the “PBM E-score of 8-mer” value was determined as 0.0187 ± 0.058.

As to ACACTCTA, the “PBM E-score of 8-mer” value came to 0.325 ± 0.017.

Regarding AGGTCTCA, the “PBM E-score of 8-mer” value was -0.066 ± 0.0096.

Consider ATCGTACA, for which the “PBM E-score of 8-mer” value is -0.0175 ± 0.049.

As for CATCCTAG, the “PBM E-score of 8-mer” value was -0.0742 ± 0.097.

On to AGGAAGAG, for which the “PBM E-score of 8-mer” value was -0.317 ± 0.032.

For ACCCGTCT, the “PBM E-score of 8-mer” value is -0.0132 ± 0.03.

ACGGAGAG: the “PBM E-score of 8-mer” value was -0.0526 ± 0.021.

In the case of TCCTCACA, the “PBM E-score of 8-mer” value came out at 0.3492 ± 0.0024.

As for TACTAAAA, the “PBM E-score of 8-mer” value is -0.042 ± 0.079.

Take GAGAGTGA: the “PBM E-score of 8-mer” value came to 0.217 ± 0.046.

Turning to AAATGTCA, the “PBM E-score of 8-mer” value was -0.00106 ± 0.083.

Take GGGAAACA: the “PBM E-score of 8-mer” value was -0.00199 ± 0.0083.

Regarding CCGAACGA, the “PBM E-score of 8-mer” value is -0.0483 ± 0.014.

Turning to AGCCCGCG, the “PBM E-score of 8-mer” value is -0.139 ± 0.018.

For AATGTATG, the “PBM E-score of 8-mer” value was -0.166 ± 0.049.

On to ATTTTTTA, for which the “PBM E-score of 8-mer” value was -0.209 ± 0.066.

As for GATCGCCA, the “PBM E-score of 8-mer” value worked out at 0.212 ± 0.1.

For the sequence TGTCGGAA, the “PBM E-score of 8-mer” value is 0.155 ± 0.016.

GACCGGAA: the “PBM E-score of 8-mer” value was -0.111 ± 0.058.

With CATCCATG, the “PBM E-score of 8-mer” value was -0.0897 ± 0.077.

Take CAAACGAC: the “PBM E-score of 8-mer” value was found to be 0.125 ± 0.046.

Turning to AAAGCGTG, the “PBM E-score of 8-mer” value amounted to 0.326 ± 0.022.

Turning to AGGGCGAA, the “PBM E-score of 8-mer” value was -0.0427 ± 0.049.

For CCAGCCCA, the “PBM E-score of 8-mer” value is -0.348 ± 0.066.

As to CCTGAGGC, the “PBM E-score of 8-mer” value is -0.0202 ± 0.018.

Consider CGTGTTTA, for which the “PBM E-score of 8-mer” value came to 0.123 ± 0.047.

For CGCGGACA, the “PBM E-score of 8-mer” value is 0.134 ± 0.14.

For CGCTTTAC, the “PBM E-score of 8-mer” value is -0.169 ± 0.048.

In the case of AACGGGGA, the “PBM E-score of 8-mer” value is -0.0588 ± 0.079.

Take GCCAAGGA: the “PBM E-score of 8-mer” value is -0.177 ± 0.036.

In the case of GCCTGCGA, the “PBM E-score of 8-mer” value amounted to 0.292 ± 0.032.

Turning to GCAATTGA, the “PBM E-score of 8-mer” value was found to be 0.0237 ± 0.0032.

Take TCATCCAA: the “PBM E-score of 8-mer” value was 0.0902 ± 0.048.

Turning to AATGAACT, the “PBM E-score of 8-mer” value is -0.234 ± 0.022.

CTGTTAGC: the “PBM E-score of 8-mer” value came to 0.207 ± 0.02.

Regarding GCGGGAGA, the “PBM E-score of 8-mer” value worked out at 0.00441 ± 0.0052.

On to ACTAAATC, for which the “PBM E-score of 8-mer” value is -0.139 ± 0.0051.

As to CAGTATAG, the “PBM E-score of 8-mer” value is -0.042 ± 0.02.

As to AAAGATGA, the “PBM E-score of 8-mer” value was -0.148 ± 0.012.

With CACACGGC, the “PBM E-score of 8-mer” value was 0.151 ± 0.069.

With CAATCACC, the “PBM E-score of 8-mer” value amounted to 0.0938 ± 0.039.

As to AAGATGAC, the “PBM E-score of 8-mer” value was 0.15 ± 0.03.

Consider AGATTGAG, for which the “PBM E-score of 8-mer” value is -0.0733 ± 0.0032.

Consider GGAAGTGA, for which the “PBM E-score of 8-mer” value came out at 0.29 ± 0.0042.

For CGCGCGCC, the “PBM E-score of 8-mer” value worked out at 0.173 ± 0.064.

In the case of CAAAACGC, the “PBM E-score of 8-mer” value was -0.109 ± 0.0029.

On to ATAAGTAC, for which the “PBM E-score of 8-mer” value is -0.246 ± 0.026.

For ACAGAGGC, the “PBM E-score of 8-mer” value was found to be 0.0708 ± 0.05.

As for CCAAGGCG, the “PBM E-score of 8-mer” value is 0.197 ± 0.036.

With ATTAAGGG, the “PBM E-score of 8-mer” value was -0.186 ± 0.0053.

For GACACCGC, the “PBM E-score of 8-mer” value came to 0.244 ± 0.061.

With CCGCAGAC, the “PBM E-score of 8-mer” value was -0.143 ± 0.042.

For CGTTTTTC, the “PBM E-score of 8-mer” value was -0.018 ± 0.028.

On to TGAGTGCA, for which the “PBM E-score of 8-mer” value was -0.219 ± 0.07.

Take AAGAAGGA: the “PBM E-score of 8-mer” value came to 0.0222 ± 0.048.

Take GAGTCAAC: the “PBM E-score of 8-mer” value was found to be 0.0904 ± 0.024.

For AAGGATAT, the “PBM E-score of 8-mer” value was -0.236 ± 0.025.

Regarding AATTAGGA, the “PBM E-score of 8-mer” value is -0.00968 ± 0.088.

Regarding AATTTTTA, the “PBM E-score of 8-mer” value was -0.111 ± 0.084.

On to AACACCCG, for which the “PBM E-score of 8-mer” value was found to be 0.404 ± 0.01.

ACACCGCA: the “PBM E-score of 8-mer” value was 0.175 ± 0.021.

As for CCCGCAAG, the “PBM E-score of 8-mer” value is -0.104 ± 0.055.

Regarding ACACGTAC, the “PBM E-score of 8-mer” value was found to be 0.331 ± 0.0064.

For the origin of these results see the supplement of paper PMC4166925.
